{
  "source": "the supplement of paper PMC8728848",
  "experiment_in_all_cases": "glycan array binding signal (z-score within array); higher = stronger binding",
  "settings_in_all_cases": "glycan notation: IUPAC condensed, linker removed",
  "key": {"[1]": {"target": "Gal(b1-4)GlcNAc(b1-2)Man(a1-3)[Gal(b1-4)GlcNAc(b1-2)Man(a1-6)]Man(b1-4)GlcNAc(b1-4)GlcNAc", "summary_of_the_method": "(§1)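 The binding signal is a Z-score computed within each array. Data were drawn from 3228 arrays in the Consortium for Functional Glycomics database, restricted to those with a known protein sequence. Scores were averaged over arrays of the same protein sequence at different concentrations or buffers, and over linkers, and negative values can be taken as non-binding.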"}, "[2]": {"target": "Gal(b1-4)GlcNAc(b1-2)Man(a1-3)[Gal(b1-4)GlcNAc(b1-2)Man(a1-6)]Man(b1-4)GlcNAc(b1-4)[Fuc(a1-6)]GlcNAc", "summary_of_the_method": "as §1"}, "[3]": {"target": "Gal(b1-4)GlcNAc(b1-2)Man(a1-3)[Gal(b1-4)GlcNAc(b1-2)][GlcNAc(b1-4)]Man(b1-4)GlcNAc(b1-4)GlcNAc", "summary_of_the_method": "as §1"}, "[4]": {"target": "Gal(b1-4)GlcNAc(b1-2)Man(a1-3)[GlcNAc(b1-2)Man(a1-6)]Man(b1-4)GlcNAc(b1-4)GlcNAc", "summary_of_the_method": "as §1"}, "[5]": {"target": "Gal(b1-4)GlcNAc(b1-2)Man(a1-3)[Man(a1-6)]Man(b1-4)GlcNAc(b1-4)GlcNAc", "summary_of_the_method": "as §1"}, "[6]": {"target": "Gal(b1-4)GlcNAc(b1-2)Man(a1-6)Man(b1-4)GlcNAc(b1-4)GlcNAc", "summary_of_the_method": "as §1"}, "[7]": {"target": "Gal(b1-4)GlcNAc(b1-2)Man(a1-6)[GlcNAc(b1-2)Man(a1-3)]Man(b1-4)GlcNAc(b1-4)GlcNAc", "summary_of_the_method": "as §1"}, "[8]": {"target": "Gal(b1-4)GlcNAc(b1-2)Man(a1-6)[Man(a1-3)]Man(b1-4)GlcNAc(b1-4)GlcNAc", "summary_of_the_method": "as §1"}, "[9]": {"target": "Gal(b1-4)GlcNAc(b1-2)[Gal(b1-4)GlcNAc(b1-4)]Man(a1-3)[Gal(b1-4)GlcNAc(b1-2)Man(a1-6)]Man(b1-4)GlcNAc(b1-4)GlcNAc", "summary_of_the_method": "as §1"}, "[10]": {"target": "Gal(b1-4)GlcNAc(b1-2)[Gal(b1-4)GlcNAc(b1-4)]Man(a1-3)[Gal(b1-4)GlcNAc(b1-2)[Gal(b1-4)GlcNAc(b1-6)]Man(a1-6)]Man(b1-4)GlcNAc(b1-4)GlcNAc", "summary_of_the_method": "as §1"}, "[11]": {"target": "Gal(b1-4)GlcNAc(b1-2)[Gal(b1-4)GlcNAc(b1-4)]Man(a1-3)[GlcNAc(b1-4)][Gal(b1-4)GlcNAc(b1-2)Man(a1-6)]Man(b1-4)GlcNAc(b1-4)GlcNAc", "summary_of_the_method": "as §1"}, "[12]": {"target": "Gal(b1-4)GlcNAc(b1-2)[Gal(b1-4)GlcNAc(b1-4)]Man(a1-3)[GlcNAc(b1-4)][Gal(b1-4)GlcNAc(b1-2)[Gal(b1-4)GlcNAc(b1-6)]Man(a1-6)]Man(b1-4)GlcNAc(b1-4)GlcNAc", "summary_of_the_method": "as §1"}, "[13]": {"target": "Gal(b1-4)GlcNAc(b1-2)[Gal(b1-4)GlcNAc(b1-6)]Man(a1-6)[Gal(b1-4)GlcNAc(b1-2)Man(a1-3)]Man(b1-4)GlcNAc(b1-4)GlcNAc", "summary_of_the_method": "as §1"}, "[14]": {"target": "Gal(b1-4)GlcNAc(b1-2)[Gal(b1-4)GlcNAc(b1-6)]Man(a1-6)[GlcNAc(b1-4)][Gal(b1-4)GlcNAc(b1-2)Man(a1-3)]Man(b1-4)GlcNAc(b1-4)GlcNAc", "summary_of_the_method": "as §1"}, "[15]": {"target": "Gal(b1-4)GlcNAc(b1-3)Gal(b1-3)GlcNAc", "summary_of_the_method": "as §1"}, "[16]": {"target": "Gal(b1-4)GlcNAc(b1-3)Gal(b1-4)Glc", "summary_of_the_method": "as §1"}, "[17]": {"target": "Gal(b1-4)GlcNAc(b1-3)Gal(b1-4)GlcNAc", "summary_of_the_method": "as §1"}, "[18]": {"target": "Gal(b1-4)GlcNAc(b1-3)Gal(b1-4)GlcNAc(b1-3)Gal(b1-4)GlcNAc", "summary_of_the_method": "as §1"}, "[19]": {"target": "Gal(b1-4)GlcNAc(b1-3)Gal(b1-4)[Fuc(a1-3)GlcNAc(b1-6)]Gal(b1-4)Glc", "summary_of_the_method": "as §1"}, "[20]": {"target": "Gal(b1-4)GlcNAc(b1-3)Gal(b1-4)[Fuc(a1-3)]GlcNAc(b1-3)Gal(b1-4)[Fuc(a1-3)]GlcNAc", "summary_of_the_method": "as §1"}, "[21]": {"target": "Gal(b1-4)GlcNAc(b1-3)GalNAc", "summary_of_the_method": "as §1"}, "[22]": {"target": "Gal(b1-4)GlcNAc(b1-3)[Gal(b1-4)GlcNAc(b1-6)]Gal(b1-4)GlcNAc", "summary_of_the_method": "as §1"}, "[23]": {"target": "Gal(b1-4)GlcNAc(b1-3)[Gal(b1-4)GlcNAc(b1-6)]GalNAc", "summary_of_the_method": "as §1"}, "[24]": {"target": "Gal(b1-4)GlcNAc(b1-3)[GlcNAc(b1-6)]Gal(b1-4)GlcNAc", "summary_of_the_method": "as §1"}, "[25]": {"target": "Gal(b1-4)GlcNAc(b1-6)Gal(b1-4)GlcNAc", "summary_of_the_method": "as §1"}, "[26]": {"target": "Gal(b1-4)GlcNAc(b1-6)GalNAc", "summary_of_the_method": "as §1"}, "[27]": {"target": "Gal(b1-4)GlcNAc(b1-6)[Gal(b1-3)]GalNAc", "summary_of_the_method": "as §1"}, "Gal(b1-6)Gal": {"target": "Gal(b1-6)Gal", "summary_of_the_method": "as §1"}, "Gal3S(b1-3)GalNAc": {"target": "Gal3S(b1-3)GalNAc", "summary_of_the_method": "as §1"}, "Gal3S(b1-3)GlcNAc": {"target": "Gal3S(b1-3)GlcNAc", "summary_of_the_method": "as §1"}},
  "note": "Some of the results follow.",
  "data": [
    {"binder": "NanI (Corynebacterium diphtheriae), C6JSW7 (protein) MTNTLESNPMTTTTGALTITFATTCDGPLAHIPHHLDLNIIHGRIQGTTAHRRIDAEDPDGLDDGLPHHLCLSVDTTGTHLFIDGYEAFSTTQTEWFDTSELTLNPHGDLTIIDHQILNHAPTPRQARNLAPAAEPLVWFAGSHLSTRDTQRISHLTHGSLRLLMKTRGTGQGGVAFQAHTINGDLTLEIIDGTLIFSVRCHDEDYVRITAPGRWDDGQIYDVVIVCGRGATDIYVDGQQLIHSPGAAFFNDLSGELSVHIGTAASGVRLFGEVQSGMIYPHVFNHHQVQRLATVEPIATQALFDCLLDGAQSYRIPSLITTDSGVIIAGADKRVSIANDAPNDIDFVLRRSVDGGRTWQPPRTILQLPDTACVTDSVLLQDHTTGRIFAFLDQFPAGIGQPNAAFGTGFDADGNRIGHFADGSTCTMPREVDQLEASFFSDPHTAPPGIVFQHPSCHLWMLTSDDDGLTWSTPRDLTPDVKEEWMRFCGTSPGNGIQLQRDTHAGRLLIPMYYTKGDQFFAAALYSDDHGDTWHRGESPDLEMYESTLVEASDGSVLLWARNQHPSGAVAHARSTDGGHSWSQVTFNPNVPEIFSQPNALRVTNPDGIIFANASQLLPFRGRGVLRMSTNDGASWQHNRVFNPRHYVYQCMTQLPDGSIGLLWEREMQGLFFSIIPMTWIMQGYAL", "values": [
      {"measurement": "glycan array binding signal (z-score)", "setting": "[1]", "result": 0.035},
      {"measurement": "glycan array binding signal (z-score)", "setting": "[2]", "result": 0.309},
      {"measurement": "glycan array binding signal (z-score)", "setting": "[3]", "result": -0.256},
      {"measurement": "glycan array binding signal (z-score)", "setting": "[4]", "result": -0.469},
      {"measurement": "glycan array binding signal (z-score)", "setting": "[5]", "result": -0.178},
      {"measurement": "glycan array binding signal (z-score)", "setting": "[6]", "result": -0.306},
      {"measurement": "glycan array binding signal (z-score)", "setting": "[7]", "result": -0.274},
      {"measurement": "glycan array binding signal (z-score)", "setting": "[8]", "result": -0.574},
      {"measurement": "glycan array binding signal (z-score)", "setting": "[9]", "result": 0.276},
      {"measurement": "glycan array binding signal (z-score)", "setting": "[10]", "result": 0.758},
      {"measurement": "glycan array binding signal (z-score)", "setting": "[11]", "result": -0.205},
      {"measurement": "glycan array binding signal (z-score)", "setting": "[12]", "result": 0.081},
      {"measurement": "glycan array binding signal (z-score)", "setting": "[13]", "result": 8.52},
      {"measurement": "glycan array binding signal (z-score)", "setting": "[14]", "result": 0.019},
      {"measurement": "glycan array binding signal (z-score)", "setting": "[15]", "result": 0.332},
      {"measurement": "glycan array binding signal (z-score)", "setting": "[16]", "result": -0.376},
      {"measurement": "glycan array binding signal (z-score)", "setting": "[17]", "result": -0.586},
      {"measurement": "glycan array binding signal (z-score)", "setting": "[18]", "result": -0.704},
      {"measurement": "glycan array binding signal (z-score)", "setting": "[19]", "result": -0.201},
      {"measurement": "glycan array binding signal (z-score)", "setting": "[20]", "result": 0.005},
      {"measurement": "glycan array binding signal (z-score)", "setting": "[21]", "result": 0.136},
      {"measurement": "glycan array binding signal (z-score)", "setting": "[22]", "result": -0.463},
      {"measurement": "glycan array binding signal (z-score)", "setting": "[23]", "result": -0.3},
      {"measurement": "glycan array binding signal (z-score)", "setting": "[24]", "result": -0.61},
      {"measurement": "glycan array binding signal (z-score)", "setting": "[25]", "result": -0.148},
      {"measurement": "glycan array binding signal (z-score)", "setting": "[26]", "result": 0.855},
      {"measurement": "glycan array binding signal (z-score)", "setting": "[27]", "result": -0.007},
      {"measurement": "glycan array binding signal (z-score)", "setting": "Gal(b1-6)Gal", "result": 0.892},
      {"measurement": "glycan array binding signal (z-score)", "setting": "Gal3S(b1-3)GalNAc", "result": -0.364},
      {"measurement": "glycan array binding signal (z-score)", "setting": "Gal3S(b1-3)GlcNAc", "result": -0.768}
    ]}
  ]
}
